Results taken from the supplement of paper PMC9513381.
Numbering of substitutions follows the chain as printed. Recombinant human monoclonal antibodies (heavy:light variable regions). ELISA EC50 on the named antigen, from 10 µg/ml down; IC50 / IC90 against spike pseudovirus on 293T-ACE2 cells, 48 h; lower = stronger. Calls: IC50 above 1,000 ng/ml = non-neutralizing; EC50 above 1,000 ng/ml = non-binder. The source prints 1000 for neutralization that was not reached; it is given as >1000 ng/ml. Only binders of the Wuhan-Hu-1 domain have neutralization values.

B1: B658 (protein)
chain 1: QVQLVQSGAEVKKPGASVKVSCEASGYNFMSYGISWVRQAPGQGLEWMGWISVYNDYTHYAQKLQGRVTMTTDTSTSTAYMELRSLRSDDTAVYYCAREGFCSGSNCYRGTYNYYGMDVWGQGTTVTVSS
chain 2: EIVLTQSPATLSLSPGERVTLSCRASQSVSSYLAWYQQKPGQAPRLLIYDASNRATGIPARFSGSGSGTDFTLTISSLEPEDFAVYYCQQRRDAGSFGGGTKVEIQ
B2: B657 (protein)
chain 1: QVQLVQSGAEVKKPGASVKVSCKASGYSFTSYLMHWVRQAPGQGLEWMGIINPSGGGRTYAQKFQGRVTMTRDTSTGIVYMELSSLRSEDTALYYCAREHGGNSLFDYWGQGTRVTVSS
chain 2: DIQMTQSPSSLSASVGDRVTITCRASQSISRYLNWYQQKPGKAPNVLIYAASTLQSGVPSRFSGSGSGTDFTLTISGLQPEDFATYYCQQSYNSLGVTFGGGTKVEIK
B3: B656 (protein)
chain 1: QVQLVQSGAEVKKPGASVKVSCKASGYTFTSYEIIWVRQATGQGLEWMAWMNPNNPNTAYKQKFRGRITLTRDTSRSTAYMELTSLTSEDTAVYFCARVGGLTGASDYWGQGTLVTVSS
chain 2: SYVLTQPPSVSVAPGKTARIPCGGNNLGSKNVHWYQQKPGQAPVLVVYDDSDRPSGIPERFSGSNSGNTATLTISRVEAGDEADYYCQVWDGTTDVFYVFGSGTKVTVL
B4: B2106 (protein)
chain 1: EVQLVESGGALQQPGRSLTLSCAASGFTFEDYAMHWVRQAPGKGLEWVSGITWTGGMIDYADSVKGRFIISRDNAKKSLYLHMRGLRPEDTALYYCARGSRSGSYHLRDHFYGMDVWGQGTTVTVSS
chain 2: DIQMTQSPSTLSASVGDRVTITCRASQNINSWLAWYQQKPGKAPKLVIYDASDLESGVPSRFSGSGSGTEFTLTITSLQPDDFATYYCQQYKAYWSFGQGTKVEIK
B5: B651 (protein)
chain 1: EVQLLESGGDLVRPGGSLRLSCAASGFMFRRYAMNWVRQAPGKGLEWVSGISGSGDKTCYAESVKGRFTISRDNSKNTLYLQMSGLKAEDTAIYYCAKGPRSSFDYFESWGQGTLVTVSS
chain 2: DIQMTQSPSTLSASVGDRVTITCRASQSISNWLAWYQQKPGKAPKLLIYDASSLESGVPSRFSGSGSGTEFTLTISSLQPDDFATYYCQHYNSCPWTFGQGTKVEIK
B6: B655 (protein)
chain 1: EVQLVESGGGLIQPGGSLRLSCVASEIIVSSNYMSWVRQAPGKGLEWVSVIYPGGSTFYADSVKGRFTISRDSSKNTLSLQMNSLRDEDTAMYYCAREGLVGGMLAFDIWGQ
chain 2: DIQLTQSPSFLSASVGDRVTITCRASQGISSYLAWYQQKPGKAPKLLIYAASTLQSGVPSRFSGSGSGTEFTLTISSLQPEDFAIYYCQRLNSSPAEITFGQGTRLEIK
B7: B653 (protein)
chain 1: QVQLVQSGAEVKKPGASVKVSCTASGYTSIDYFMHWVRQAPGQGLEWMGRINPNSGGTNYAPKFQGRVTMTRDTSINIAYMELSRLRSDDTAVYYCANTGSWRQENWYFELWGRGTLVIVSS
chain 2: DIVMTQTPLSLPVTPGEPASISCRSSQSLLGSDDGNTYLDWYLQRPGQSPQLLIYSLSYRASGVPDRFSGSGSGTDFTLKISRVEAEDVGVYYCMHRIEFPFTFGPGTKVDI
B8: B654 (protein)
chain 1: B7 chain 1 with A24S, M34V, I51V, A79V, F109L, E110Q
chain 2: B7 chain 2 with P12A, G31R, V91I, I98V, T103I
B9: B660 (protein)
chain 1: EVQLVQSGAEVKKPGESLKISCKTSGYNFNIYWIGWVRQMPGKGLKWMGIIFPGDSDTRYGPSFQGQVTISTDKSISTAYLQWSSLKASDTGMYYCARVASPEGFTTGWNGRGPDEAFDIWGQGTPVTVS
chain 2: QSVLTQPPSASGTPGQRVTISCSGGSSNIGSNYVYWYQHLPGTAPKLLIYRNDQRPSGVPDRFSGSKSGTSASLAISGLRSEDETDYYCATWDDSLSAGVFGGGTKLTVL
B10: B659 (protein)
chain 1: EVQLVESGGGLVQPGRSLRLSCAASGFYFDDYAMHWVRQAPGKGLEWVSGISWNSGTVVYADSVKGRFTISRDNAQKSLYLQVNSLTVEDTALYYCAKDTRSHNDILAGYHGIDYWGQGILVIVSS
chain 2: DIVMTQSPLSLPVTPGEPASISCRSSQSLLHSNGHTYLDWYLQKPGQSPQLLIYMGSNRASGVPDRFSGSGSGTDFTLKISRVEAEDVGVYYCMQALQTPPTFGGGTKVEIK
B11: B652 (protein)
chain 1: EVQLLESGGGLVQPGGSLRLSCAASGFTFTRYAMNWVRQAPGKGLEWVSGIGGYGGSTNYADAVKGRFTISRDDSKNTVYLQMNSLRGEDTAVYHCAKGPRSSFDYFDSWGQGTLVTVSS
chain 2: DIQMTQSPSTLSASVGDRVTITCRASQTISTWLAWYQQKPGRAPKLLIYDASSLESGVPSRFSGSGSGTEFTLTISSLQPDDFATYYCQQYNSYPWTFGQGTKVDI
B12: B1104 (protein)
chain 1: QVQLVQSGAEVKTPGASVKLSCKASGYTFSNYYIHWVRQAPGQGLEWMGIINPSGGGTSYAQKFQGRVAMTRDTSTSTVYMKLSSLTSEDTAVYYCAYTSTTVTTSGFDYWGQGTLVTVSS
chain 2: SYVLTQPPSVSVAPGQTARITCGENDIGSKSVHWYQQRPGQAPVLVVYDDSDRPSGIPERFSGSNSGNPATLTISRVEAGDEADYYCQVWDSSSDHGHVVFGGGTKLTVL
B13: B1105 (protein)
chain 1: QVQLVQSGAEVKKPGSSVKVSCKASGGTFSSYAISWVRQAPGQGLEWMGGIIPISGTAYYAQRFQGRVTITADKSTSTAYMDLSSLRSEDTAIYYCATLQIVVPAAVPPDGGYYFYYYGMDVWGQGTTVTVSS
chain 2: not shown
B14: B661 (protein)
chain 1: EVQLVESGGGLIQPGGSLRLSCAASGLTVSSNYMNWVRQAPGKGLEWVSIIYSGGTTYYAESVKGRFTISRDNSKNTLYLQMNSLRAEDTAVYYCAREAYGMDVWGQGTTVTVS
chain 2: DIQLTQSPSFLSTSVGDRVTITCRASQGISRSLAWYQQKPGKAPKLLIYETSTLQSGVPSRFSGSGSGTDFTLTISSLQPEDFATYYCEHLNSYPTFGQGTRLEIK

Molecular target: SARS-CoV-2 Wuhan-Hu-1 spike pseudovirus
Assay: pseudovirus neutralization IC50; higher = weaker neutralization
Experimental: (§1)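 Single-round luciferase reporter pseudovirus mixed with antibody dilutions and put on 293T-ACE2 cells for 48 h; signal relative to no-antibody wells, four-parameter fit.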

Row | Binder | pseudovirus neutralization IC50 [ng/mL]
1 | B1 | 13.5
2 | B2 | 9.67
3 | B3 | > 1000
4 | B4 | 157
5 | B5 | > 1000
6 | B6 | 8.59
7 | B7 | 6.76
8 | B8 | 4.24
9 | B9 | 72.8
10 | B10 | 36.7
11 | B11 | > 1000
12 | B12 | > 1000
13 | B13 | > 1000
14 | B14 | 8.51

Molecular target: SARS-CoV-2 Wuhan-Hu-1 spike pseudovirus
Assay: pseudovirus neutralization IC90; higher = weaker neutralization
Experimental: as §1

Row | Binder | pseudovirus neutralization IC90 [ng/mL]
15 | B1 | 43.2
16 | B2 | 31.9
17 | B3 | > 1000
18 | B4 | > 1000
19 | B5 | > 1000
20 | B6 | 31.6
21 | B7 | 13.6
22 | B8 | 9.82
23 | B9 | > 1000
24 | B10 | 237
25 | B11 | > 1000
26 | B12 | > 1000
27 | B13 | > 1000
28 | B14 | 41.8

Molecular target: SARS-CoV-2 Delta (B.1.617.2) spike RBD
Assay: ELISA binding EC50; higher = weaker binding; ELISA of recombinant human antibody on coated antigen, from 10 µg/ml in fourfold dilutions; four-parameter fit.

Row | Binder | ELISA binding EC50 [ng/mL]
29 | B1 | 3.57
30 | B2 | 3.87
31 | B3 | 6.8
32 | B4 | > 1000
33 | B5 | 7.33
34 | B6 | 3
35 | B7 | 3.04
36 | B8 | 1.46
37 | B9 | 71.8
38 | B10 | 2.23
39 | B11 | 4.42
40 | B12 | 90.2
41 | B13 | 97.9
42 | B14 | 6.25

Molecular target: SARS-CoV-2 Omicron BA.1 spike protein
Assay: as above

Row | Binder | ELISA binding EC50 [ng/mL]
43 | B1 | 30.3
44 | B2 | > 1000
45 | B3 | 5.86
46 | B4 | > 1000
47 | B5 | 27.8
48 | B6 | > 1000
49 | B7 | > 1000
50 | B8 | 715
51 | B9 | > 1000
52 | B10 | 6.86
53 | B11 | 2.87
54 | B12 | 125
55 | B13 | 17.6
56 | B14 | > 1000

Molecular target: SARS-CoV-2 Wuhan-Hu-1 spike receptor-binding domain
Assay: as above

Row | Binder | ELISA binding EC50 [ng/mL]
57 | B1 | 2.48
58 | B2 | 1.1
59 | B3 | 2.48
60 | B4 | 3.25
61 | B5 | 0.856
62 | B6 | 1.12
63 | B7 | 1.32
64 | B8 | 0.819
65 | B9 | 5.61
66 | B10 | 1.49
67 | B11 | 0.755
68 | B12 | 2.21
69 | B13 | 3.53
70 | B14 | 0.982
